Reference: PubChem BioAssay AID504339 (National Center for Advancing Translational Sciences (NCATS), 2011)
The campaign covered roughly 390,000 compounds. About 17,000 (4.4%) were called active. The inconclusive results got no clear call from the source; some entries with a clear call stand among them for comparison. Calls follow the shape of the dose curve; as a rule, active = well fitted inhibition curve with a large enough effect; inconclusive = small, poorly fitted or top-dose-only effect; inactive = no such curve, though single readings can be large or run the other way. Potencies of inconclusive entries are doubtful fits and often do not repeat.

target: Lysine-specific demethylase 4A (Homo sapiens) (UniProt O75164); experiment: qHTS Assay for Inhibitors of JMJD2A-Tudor Domain; conditions: AlphaScreen JMJD2A-Tudor / H3K4me3 peptide binding; series mostly up to 114 µM; also: nearly all actives have a fitted effect of over 50% in size
Potency is read from the fitted curve at half-maximal effect; tags tell the direction and shape of the fitted curve.

Sequence of UniProt O75164 (O75164 whole entry, looked up, the tested form may be a part): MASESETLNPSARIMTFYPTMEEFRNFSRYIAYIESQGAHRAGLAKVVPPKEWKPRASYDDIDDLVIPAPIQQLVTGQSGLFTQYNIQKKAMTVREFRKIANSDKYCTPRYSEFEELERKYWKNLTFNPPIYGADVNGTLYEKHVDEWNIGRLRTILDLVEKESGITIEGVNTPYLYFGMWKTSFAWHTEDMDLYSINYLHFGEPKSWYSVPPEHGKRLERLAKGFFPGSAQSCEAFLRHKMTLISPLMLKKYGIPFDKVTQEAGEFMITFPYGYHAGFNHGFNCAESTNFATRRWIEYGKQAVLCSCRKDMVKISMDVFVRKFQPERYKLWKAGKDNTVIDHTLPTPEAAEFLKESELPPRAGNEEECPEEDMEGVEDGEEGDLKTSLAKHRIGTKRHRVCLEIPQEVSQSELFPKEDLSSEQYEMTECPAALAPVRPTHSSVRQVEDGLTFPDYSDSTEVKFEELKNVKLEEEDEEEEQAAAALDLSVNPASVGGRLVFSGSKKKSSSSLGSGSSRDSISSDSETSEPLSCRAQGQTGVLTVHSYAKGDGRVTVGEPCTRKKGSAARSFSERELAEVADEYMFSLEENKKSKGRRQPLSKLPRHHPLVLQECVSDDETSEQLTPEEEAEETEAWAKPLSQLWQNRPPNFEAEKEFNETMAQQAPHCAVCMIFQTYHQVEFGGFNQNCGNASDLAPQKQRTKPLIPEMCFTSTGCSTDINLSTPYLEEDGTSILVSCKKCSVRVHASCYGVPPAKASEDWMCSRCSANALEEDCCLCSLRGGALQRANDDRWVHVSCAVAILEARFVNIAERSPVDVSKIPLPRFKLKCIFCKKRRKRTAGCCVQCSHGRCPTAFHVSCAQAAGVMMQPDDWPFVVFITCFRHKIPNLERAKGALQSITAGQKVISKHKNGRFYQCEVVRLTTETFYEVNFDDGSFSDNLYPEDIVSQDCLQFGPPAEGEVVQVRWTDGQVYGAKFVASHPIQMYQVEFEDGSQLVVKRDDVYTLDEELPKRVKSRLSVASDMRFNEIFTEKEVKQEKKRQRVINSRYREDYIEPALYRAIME

SMILES | Potency
O=[N+]([O-])c1ccc(N/N=C/c2ccc(O)c(O)c2O)c(S(=O)(=O)N2CCOCC2)c1 | active: 44.7 µM
CCOc1ccc(C(c2c(NC(=O)c3ccccc3)sc(C)c2C)N2CCN(CCO)CC2)cc1 (stereo not drawn) | inconclusive: 56.2 µM [inhibitor, partial curve]
Cc1ccsc1/C=N/Nc1ccc(C(=O)O)cc1 | inactive
Cc1noc(C)c1-c1ccc2ncnc(NCc3ccc4[nH]ccc4c3)c2c1 | inconclusive: 50.1 µM [inhibitor, partial curve]
COc1ccc(C(=O)NCC(c2cccnc2)N2CCN(c3ccccc3F)CC2)cc1OC (stereo not drawn) | inactive
COC(=O)c1c(C)sc(-c2c(-c3ccc(F)cc3)[nH]c3[nH]c(=O)[nH]c(=O)c23)c1O | inconclusive: 28.2 µM [inhibitor, full curve]
CCCc1nn2c(=O)cc(COC(=O)c3ccccc3NC(=O)C3CCCCC3)nc2s1 | inactive
O=C1NN(c2ccc(Cl)c(Cl)c2)C(=O)/C1=C/c1ccc(-c2ccccc2C(=O)O)o1 | inconclusive: 50.1 µM [inhibitor, partial curve]
COc1ccc(CCNC(=O)CN2CCN(c3ccccc3Cl)CC2)cc1 | inactive
Cc1cccc(-n2c(-c3csc(C)c3)n[nH]c2=S)c1 | active: 11.2 µM
CCOc1ccc(NC2=C(Cl)C(=O)N(Cc3ccccc3)C2=O)cc1 | inconclusive: 14.1 µM [inhibitor, partial curve]
COCCCNS(=O)(=O)c1ccc2[nH]c3c(c2c1)CCCCC3 | inconclusive: 56.2 µM [inhibitor, partial curve]
COc1ccc(C(=O)CN2C3=NCCCN3c3ccccc32)cc1OC | inactive
c1ccc(C2c3[nH]c4ccccc4c3CCN2Cc2cccn2-c2ccccn2)nc1 (stereo not drawn) | inconclusive: 44.7 µM [inhibitor, partial curve]
CN(C)c1ccc(CNc2ncc(Br)cc2Br)cc1 | active: 20 µM
Cc1cc(C)n2nc3nc(N4CCCCC4)nc(-c4ccco4)c3c2n1 | inconclusive: 56.2 µM [inhibitor, partial curve, poor fit]
COc1cc(NC(=O)C2=C(C)Nc3nnnn3C2c2ccc(SC)cc2)c(OC)cc1Cl (stereo not drawn) | inconclusive: 8.91 µM [inhibitor, partial curve]
NNC(=O)c1cn2ccccc2n1 | active: 20 µM
Cc1ccc(Oc2ccc(-c3nc(N)nc(N)n3)cc2)cc1 | inactive
Cc1ccccc1-n1c(SCC(=O)O)nc2sc3c(c2c1=O)CCCC3 | inconclusive: 89.1 µM [inhibitor, single point]
COc1ccccc1-c1n[nH]c(=S)n1-c1ccccc1 | active: 7.94 µM
Cc1cc(N2CCC(C)CC2)nc(SCC(=O)c2ccccc2)n1 | inactive
Cc1ccc(/C=N/NC(=O)c2cccc(S(=O)(=O)Nc3ccccc3Cl)c2)s1 | inconclusive: 44.7 µM [inhibitor, full curve, poor fit]
Cc1cc2ccccn2c1C(=O)c1ccc(Cl)c([N+](=O)[O-])c1 | inconclusive: 11.2 µM [inhibitor, partial curve]
COC(=O)c1ccc(NC(=S)NN2CCCCC2c2cccnc2)cc1 (stereo not drawn) | inactive

SMILES | Potency
Cc1nn(-c2ccccc2)c2nc(N)c(C#N)c(-c3ccc(O)c(O)c3)c12 | inconclusive: 56.2 µM [inhibitor, partial curve]
CC1=C(C(=O)Nc2ccccc2F)C(c2cccs2)C2=C(CCCC2=O)N1 (stereo not drawn) | inconclusive: 14.1 µM [inhibitor, partial curve, poor fit]
NS(=O)(=O)c1ccc(CNC(=O)c2cc(-c3ccccn3)nc3ccc(Cl)cc23)cc1 | inactive
CCOc1ccc(-c2nc3c(c(CC)nn3-c3ccccc3)c3cc(OC)c(OC)cc23)cc1 | inactive
CCN(CC)CCOC(=O)c1ccc(NC(=O)c2nn(-c3ccc(C)cc3)c(=O)c3c2c2ccccc2n3C)cc1 | inconclusive: 31.6 µM [inhibitor, partial curve]
CSCCC1NC(=O)N(CC(=O)N2N=C(c3ccc(Cl)cc3)CC2c2ccco2)C1=O (stereo not drawn) | inconclusive: 50.1 µM [inhibitor, partial curve]
COc1ccc(S(=O)(=O)Nc2c(C(=O)O)[nH]c3ccccc23)c(OC)c1 | inconclusive: 63.1 µM [inhibitor, partial curve, poor fit]
Cc1ccc(S(=O)(=O)NNC(=O)c2sc(=S)n(C)c2C)cc1 | active: 3.55 µM
COc1ccc(Nc2nc(NCc3ccco3)nc(N)c2[N+](=O)[O-])cc1 | inactive
COC(=O)N1CC=CC1(C)C(=O)NCc1cc(F)cc(C(F)(F)F)c1 (stereo not drawn) | inactive
COC(=O)CSC1=C(C#N)C(c2ccc(C)o2)CC(=O)N1 (stereo not drawn) | inactive
CCN(CC)c1ccc(CN(C(=O)c2cc(OC)c(OC)c(OC)c2)C2CCS(=O)(=O)C2)cc1 (stereo not drawn) | inconclusive: 56.2 µM [inhibitor, partial curve]
CCOc1ccccc1C(=O)N(Cc1ccc(N(C)C)cc1)Cc1ccco1 | active: 25.1 µM
C[C@H](CO)N1C[C@H](C)[C@H](CN(C)Cc2ccccc2)Oc2ccc(NC(=O)Nc3ccc(F)cc3)cc2C1=O | inconclusive: 50.1 µM [inhibitor, partial curve]
CCCCn1nc(C(=O)Nc2ccc(-n3cnnn3)cc2)c2ccccc2c1=O | inactive
CCC(C(=O)NCc1cccnc1)n1nc(C)c2sc3ccccc3c2c1=O (stereo not drawn) | inconclusive: 15.8 µM [inhibitor, full curve]
COc1ccc(OC)c(C2C=C(C34CC5CC(CC(C5)C3)C4)NC(=S)N2)c1 (stereo not drawn) | inconclusive: 31.6 µM [inhibitor, single point]
COC(=O)CN1C(=O)S/C(=C/c2ccc(N3CCCCC3)o2)C1=O | active: 35.5 µM
Cc1cccc(N2CCN(C(=S)c3ccc([N+](=O)[O-])cc3)CC2)c1 | active: 39.8 µM
COc1ccc(-c2[nH]c(-c3ccc(OC)c(OC)c3)nc2SCC(=O)Nc2ccccc2)cc1 | inconclusive: 50.1 µM [inhibitor, partial curve]
Cc1c(Cl)cccc1Nc1nc(N)nc(CN2CCc3ccccc3C2)n1 | inconclusive: 56.2 µM [inhibitor, partial curve, poor fit]
O=C(O)COc1ccccc1/C=N/NC(=O)CSc1nc2ccccc2n1Cc1ccccc1Cl | inconclusive: 56.2 µM [inhibitor, partial curve]
O=C(O)c1c[nH]c2c(C(F)(F)F)cccc2c1=O | active: 25.1 µM
O=C(NCC(=O)N1CCN(c2ncccn2)CC1)c1ccccc1OC(F)F | inactive
COc1ccc(CNc2nc(-c3cccnc3)nn2C(=O)c2cccs2)cc1 | inconclusive: 56.2 µM [inhibitor, partial curve]

SMILES | Potency
COc1cccc(C2=NN(S(C)(=O)=O)C(c3cn(-c4ccccc4)nc3-c3cccs3)C2)c1 (stereo not drawn) | inactive
CCN1C(=NCC(C)C)N[C@@H](c2cccc(F)c2)C(C(=O)OC)=C1C | inconclusive: 25.1 µM [inhibitor, single point]
COc1ccccc1NC(=O)N1CC=C(c2c[nH]c3ccccc23)CC1 | inconclusive: 50.1 µM [inhibitor, partial curve]
CCNC(=S)N1CCN(CC)CC1 | active: 3.16 µM
CCN(CC(=O)Nc1c(F)cccc1F)C(=O)C1CC1C (stereo not drawn) | inactive
CCC1=NN2C(=N)/C(=C\c3cccn3-c3ccc(C)c(C)c3)C(=O)N=C2S1 | inconclusive: 11.2 µM [inhibitor, full curve, poor fit]
CCc1nnc(N2C(=N)SCC2=O)s1 | active: 28.2 µM
Cc1cc(NC(=O)C(Cl)Cl)cc2c1OCO2 | inactive
COc1ccc(/C=C/C(=O)c2ccc[nH]2)c(OC)c1OC | inactive
Cc1cccc(Cl)c1OCCCCn1ccnc1 | inconclusive: 89.1 µM [inhibitor, partial curve]
CCCCOc1ccc(/C=C/C(=O)OCC(=O)NC2CCS(=O)(=O)C2)cc1OCC (stereo not drawn) | inactive
CCOC(=O)N1CCc2c(sc(NCc3ccc(OC)c(Br)c3)c2C(=O)Nc2cc(OC)ccc2OC)C1 | inconclusive: 12.6 µM [inhibitor, full curve]
Cc1ccc(S(=O)(=O)NCCC(=O)NC2CC2)cc1 | inconclusive: 79.4 µM [inhibitor, partial curve]
O=C(NC(=S)Nc1ccccc1N1CCCC1)c1ccc(-c2cccc([N+](=O)[O-])c2)o1 | inconclusive: 7.08 µM [inhibitor, full curve, poor fit]
Cc1ccccc1-c1noc(CSc2nnc(Cc3ccccc3)n2-c2ccc(F)cc2)n1 | inactive
S=C1NC[C@H](Cc2cccc3ccccc23)N1CC1CCCCC1 | inconclusive: 25.1 µM [inhibitor, full curve, poor fit]
COc1ccccc1CNc1ncccc1[N+](=O)[O-] | inconclusive: 12.6 µM [inhibitor, partial curve, poor fit]
COc1ccc(NC(C)=O)cc1S(=O)(=O)Nc1ccc(OCc2ccccc2)cc1 | inconclusive: 50.1 µM [inhibitor, partial curve]
CCCN1CCN(CC2=C(C(=O)OCC)C(c3ccc(Cl)cc3)NC(=O)N2)CC1 (stereo not drawn) | inactive
CCSc1ccc(-c2ccco2)nn1 | inactive
COc1ccc(CNC(=O)Cc2c(C)c3c(cc(C)c4c(C)coc43)oc2=O)cc1 | inactive
Cc1ccc(-n2ncc3c(NNC(=O)c4ccccc4C)ncnc32)cc1 | inconclusive: 35.5 µM [inhibitor, full curve]
CC(=C/c1ccccc1)/C=N/Nc1nc(N2CCCCC2)nc(N2CCCCC2)n1 | inactive
